# Results as given in patent US20220227829A1 (SHANGHAI GP BIOTECH, published 2022).
# T1: CD25 on the surface of NK92 cells (human NK cell line) (human, UniProt P01589 22-272)
# T1 sequence (looked up): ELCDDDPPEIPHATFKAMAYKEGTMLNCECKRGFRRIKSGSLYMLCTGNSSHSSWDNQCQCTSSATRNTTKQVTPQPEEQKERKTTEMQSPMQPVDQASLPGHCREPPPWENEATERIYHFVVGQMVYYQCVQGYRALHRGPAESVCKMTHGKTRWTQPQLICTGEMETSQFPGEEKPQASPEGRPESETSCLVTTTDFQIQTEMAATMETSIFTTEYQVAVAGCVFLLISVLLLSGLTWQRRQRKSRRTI
# T2: human IL-2Rα receptor, extracellular domain with 6×His Tag (human, UniProt P01589 22-240)
# T2 construct: it is read as the whole construct, not the tag alone; also called human IL-2Rα subunit; recombinant monomer IL-2Rα subunit
# T2 sequence: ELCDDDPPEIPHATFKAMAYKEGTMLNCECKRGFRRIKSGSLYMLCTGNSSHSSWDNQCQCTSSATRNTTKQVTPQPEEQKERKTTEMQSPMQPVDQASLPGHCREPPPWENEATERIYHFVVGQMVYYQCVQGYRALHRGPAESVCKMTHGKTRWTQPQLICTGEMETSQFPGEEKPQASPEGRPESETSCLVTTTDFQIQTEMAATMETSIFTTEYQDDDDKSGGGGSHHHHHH
# B1: IL-2gm1 (T3A, M39N), HSA tag (ligand)
# chain: APASSSTKKTQLQLEHLLLDLQMILNGINNYKNPKLTRNLTFKFYMPKKATELKHLQCLEEELKPLEEVLNLAQSKNFHLRPRDLISNINVIVLELKGSETTFMCEYADETATIVEFLNRWITFAQSIISTLTAAA[about 600 residues skipped]
# notes: also called IL-2gm1-HSA
# B2: IL-2gm4 (T3A, K49N, A73T), HSA tag (ligand)
# chain: APASSSTKKTQLQLEHLLLDLQMILNGINNYKNPKLTRMLTFKFYMPKNATELKHLQCLEEELKPLEEVLNLTQSKNFHLRPRDLISNINVIVLELKGSETTFMCEYADETATIVEFLNRWITFAQSIISTLTAAA[about 600 residues skipped]
# notes: also called IL-2gm4-HSA
# B3: IL-2gm6 (T3A, M39N, K49N, A73T, D109N), HSA tag (ligand)
# chain: APASSSTKKTQLQLEHLLLDLQMILNGINNYKNPKLTRNLTFKFYMPKNATELKHLQCLEEELKPLEEVLNLTQSKNFHLRPRDLISNINVIVLELKGSETTFMCEYANETATIVEFLNRWITFAQSIISTLTAAA[about 600 residues skipped]
# notes: also called IL-2gm6-HSA
# B4: IL-2-HSA (T3A) wild type (ligand)
# chain: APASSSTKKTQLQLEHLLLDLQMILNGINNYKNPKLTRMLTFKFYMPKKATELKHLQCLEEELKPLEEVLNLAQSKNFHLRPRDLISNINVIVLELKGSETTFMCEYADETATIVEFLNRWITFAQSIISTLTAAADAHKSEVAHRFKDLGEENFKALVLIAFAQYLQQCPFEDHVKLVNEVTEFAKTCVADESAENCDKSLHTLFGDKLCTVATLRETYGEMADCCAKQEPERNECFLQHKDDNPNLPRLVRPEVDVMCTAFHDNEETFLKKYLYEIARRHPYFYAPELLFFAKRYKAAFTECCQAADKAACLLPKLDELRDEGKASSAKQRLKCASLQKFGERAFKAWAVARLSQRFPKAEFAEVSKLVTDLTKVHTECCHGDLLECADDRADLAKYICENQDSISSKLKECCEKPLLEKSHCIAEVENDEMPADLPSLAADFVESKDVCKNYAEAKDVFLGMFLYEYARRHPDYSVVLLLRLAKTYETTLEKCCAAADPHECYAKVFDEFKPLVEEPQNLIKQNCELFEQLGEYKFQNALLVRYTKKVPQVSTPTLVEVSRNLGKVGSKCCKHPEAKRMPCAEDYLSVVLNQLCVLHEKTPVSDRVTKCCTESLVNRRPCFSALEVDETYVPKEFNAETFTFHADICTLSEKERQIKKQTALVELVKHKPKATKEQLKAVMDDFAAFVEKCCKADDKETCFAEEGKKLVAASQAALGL
# notes: also called wild-type IL-2-HSA; IL-2-HSA wild type
# B5: IL-2gm1d (T3A, M39A), HSA tag (ligand)
# chain: APASSSTKKTQLQLEHLLLDLQMILNGINNYKNPKLTRALTFKFYMPKKATELKHLQCLEEELKPLEEVLNLAQSKNFHLRPRDLISNINVIVLELKGSETTFMCEYADETATIVEFLNRWITFAQSIISTLTAAA[about 600 residues skipped]
# notes: HSA fusion; also called IL-2gm1d-HSA
# B6: IL-2gm1a (T3A, M39D), HSA tag (ligand)
# chain: APASSSTKKTQLQLEHLLLDLQMILNGINNYKNPKLTRDLTFKFYMPKKATELKHLQCLEEELKPLEEVLNLAQSKNFHLRPRDLISNINVIVLELKGSETTFMCEYADETATIVEFLNRWITFAQSIISTLTAAA[about 600 residues skipped]
# notes: HSA fusion; also called IL-2gm1a-HSA
# B7: IL-2gm1b (T3A, M39E), HSA tag (ligand)
# chain: APASSSTKKTQLQLEHLLLDLQMILNGINNYKNPKLTRELTFKFYMPKKATELKHLQCLEEELKPLEEVLNLAQSKNFHLRPRDLISNINVIVLELKGSETTFMCEYADETATIVEFLNRWITFAQSIISTLTAAA[about 600 residues skipped]
# notes: HSA fusion; also called IL-2gm1b-HSA
# B8: IL-2gm1c (T3A, M39Q), HSA tag (ligand)
# chain: APASSSTKKTQLQLEHLLLDLQMILNGINNYKNPKLTRQLTFKFYMPKKATELKHLQCLEEELKPLEEVLNLAQSKNFHLRPRDLISNINVIVLELKGSETTFMCEYADETATIVEFLNRWITFAQSIISTLTAAA[about 600 residues skipped]
# notes: HSA fusion; also called IL-2gm1c-HSA
# Molecular target: T1, CD25 on the surface of NK92 cells …
# Experiment: cell-based or functional assay
row,Binder,"specific activity to stimulate the proliferation of NK92 cells, compared with IL-2-HSA [%]"
1,B1,1.07
2,B2,1.78
3,B3,0.087

# Molecular target: T2, human IL-2Rα receptor, extracellular …
# Experiment: SPR, Biacore 8K, IL-2Rα immobilised on the chip, steady state
row,Binder,Kd [nM]
1,B4,55.6
2,B5,66.2
3,B2,72.6

# Molecular target: T2, human IL-2Rα receptor, extracellular …
# Experiment: SPR, Biacore 8K, IL-2Rα immobilised on the chip, dynamic state (1:1 fit)
row,Binder,Kd [nM]
1,B4,106
2,B2,35.4

# Molecular target: T2, human IL-2Rα receptor, extracellular …
# Experiment: Biacore 8K, IL-2Rα immobilised on the chip; steady state and dynamic state (c2 and c3)
row,Binder,binding result
1,B1,no binding (tested: 200 nM)
2,B6,no binding (tested: 200 nM)
3,B7,no binding (tested: 200 nM)
4,B8,no binding (tested: 200 nM)
5,B3,no binding (tested: 200 nM)

# Molecular target: T3, human IL-2Rβγ heterodimerization receptor (IL-2Rβ ECD-Knobs Fc / IL-2Rγ ECD-Holes Fc) (human)
# T3 construct: they are read as the whole fusion chains, not the Fc fragments alone. hIgG1 Fc, knobs into holes; also called human recombinant IL-2Rβγ heterodimer; human hIL-2Rβ, γ ECD-N-hIgG1Fc
# Experiment: SPR, Biacore 8K, IL-2Rβγ-Fc heterodimer captured on Protein A chip, dynamic state (1:1 fit)
row,Binder,Kd [nM]
1,B4,15.3
2,B1,13.8
3,B6,36.5
4,B7,28.3
5,B8,38.4
6,B5,23
7,B2,33
8,B3,28.9
